At least one read-out could not be matched to a standard name with certainty.
System: cyclin D1
Test: HiBiT detection of HiBiT-tagged cyclin D1 protein level in MCF7 cells, 16 hours (Table 8)
Type: cell-based
Details: MCF7 cells stably expressing HiBiT tagged target proteins

SMILES | % Cyclin D1 Relative Level (10 nM) | % Cyclin D1 Relative Level (100 nM)
CC(=O)c1c(C)c2cnc(Nc3ccc(CN4CCN(CC(=O)NC5CC6(C5)CC(Nc5nc(NC(C)C)ccc5C(=O)Nc5cn(C)c(C7CC7)n5)C6)CC4)cn3)nc2n(C2CCCC2)c1=O (stereo not shown) [CPD-589, 2-((6-(2-(4-((6-((6-acetyl-8-cyclopentyl-5-methyl-7-oxo-7,8-dihydropyrido[2,3-d]pyrimidin-2-yl)amino)pyridin-3-yl)methyl)piperazin-1-yl)acetamido)spiro[3.3]heptan-2-yl)amino)-N-(2-cyclopropyl-1-methyl-1H-imidazol-4-yl)-6-(isopropylamino)nicotinamide] | C (Relative protein level >85%) | B (55%< Relative protein level ≤85%)
CC(=O)c1c(C)c2cnc(Nc3ccc(N4CCN(C5CCN(C(=O)C67CC(Nc8nc(C)ccc8C(=O)Nc8ccc(N(C)C)nn8)(C6)C7)C5)CC4)cn3)nc2n(C2CCCC2)c1=O (stereo not shown) [CPD-590, 2-((3-(3-(4-(6-((6-acetyl-8-cyclopentyl-5-methyl-7-oxo-7,8-dihydropyrido[2,3-d]pyrimidin-2-yl)amino)pyridin-3-yl)piperazin-1-yl)pyrrolidine-1-carbonyl)bicyclo[1.1.1]pentan-1-yl)amino)-N-(6-(dimethylamino)pyridazin-3-yl)-6-methylnicotinamide] | C (Relative protein level >85%) | C (Relative protein level >85%)
CC(=O)c1c(C)c2cnc(Nc3ccc(N4CCN(C5CCN(C(=O)C67CC(Nc8nc(NC(C)C)ccc8C(=O)Nc8cc(C)on8)(C6)C7)C5)CC4)cn3)nc2n(C2CCCC2)c1=O (stereo not shown) [CPD-591, 2-((3-(3-(4-(6-((6-acetyl-8-cyclopentyl-5-methyl-7-oxo-7,8-dihydropyrido[2,3-d]pyrimidin-2-yl)amino)pyridin-3-yl)piperazin-1-yl)pyrrolidine-1-carbonyl)bicyclo[1.1.1]pentan-1-yl)amino)-6-(isopropylamino)-N-(5-methylisoxazol-3-yl)nicotinamide] | B (55%< Relative protein level ≤85%) | B (55%< Relative protein level ≤85%)
CC(=O)c1c(C)c2cnc(Nc3ccc(N4CCN(C5CCN(C(=O)C67CC(Nc8nc(NC(C)C)ccc8C(=O)Nc8cc9n(n8)CCC9)(C6)C7)C5)CC4)cn3)nc2n(C2CCCC2)c1=O (stereo not shown) [CPD-592, 2-((3-(3-(4-(6-((6-acetyl-8-cyclopentyl-5-methyl-7-oxo-7,8-dihydropyrido[2,3-d]pyrimidin-2-yl)amino)pyridin-3-yl)piperazin-1-yl)pyrrolidine-1-carbonyl)bicyclo[1.1.1]pentan-1-yl)amino)-N-(5,6-dihydro-4H-pyrrolo[1,2-b]pyrazol-2-yl)-6-(isopropylamino)nicotinamide] | B (55%< Relative protein level ≤85%) | B (55%< Relative protein level ≤85%)
CC(=O)c1c(C)c2cnc(Nc3ccc(CN4CCC(CC(=O)NC5CC6(C5)CC(Nc5nc(NC(C)C)ccc5C(=O)Nc5ccc(N(C)C)nn5)C6)CC4)cn3)nc2n(C2CCCC2)c1=O (stereo not shown) [CPD-593, 2-((6-(2-(1-((6-((6-acetyl-8-cyclopentyl-5-methyl-7-oxo-7,8-dihydropyrido[2,3-d]pyrimidin-2-yl)amino)pyridin-3-yl)methyl)piperidin-4-yl)acetamido)spiro[3.3]heptan-2-yl)amino)-N-(6-(dimethylamino)pyridazin-3-yl)-6-(isopropylamino)nicotinamide] | C (Relative protein level >85%) | C (Relative protein level >85%)

Source: US20260297081A1, “COMPOUNDS AND METHODS OF TREATING CANCERS” (Cullgen Inc., priority 2023, published 2026)
